MIC of nasopharyngeal S. pneumoniae isolates by broth microdilution (range and time not stated); higher = less susceptible. No active / inactive call per row; the paper counts penicillin above 0.06 and amoxicillin above 0.5 mg/L as non-susceptible (EUCAST). The lowest value, 0.01, is taken as the floor ('<='); the source prints it plain. Penicillin G is assumed for 'penicillin'. Isolates are numbered anew. PBP alleles are the type numbers of penicillin-binding proteins 1a, 2b and 2x; equal numbers mean equal sequences.
Key:
amoxicillin = compound: CC1(C)S[C@@H]2[C@H](NC(=O)[C@H](N)c3ccc(O)cc3)C(=O)N2[C@H]1C(=O)O [amoxicillin]; experiment: Broth microdilution.
penicillin G = compound: CC1(C)S[C@@H]2[C@H](NC(=O)Cc3ccccc3)C(=O)N2[C@H]1C(=O)O [penicillin G]; experiment: Broth microdilution.

Test System	MIC (amoxicillin) [µg/mL]	MIC (penicillin G) [µg/mL]
Streptococcus pneumoniae isolate 346 (PBP alleles 1a 2b 2x: New_New_New, serotype: 35F)	0.06	0.125
Streptococcus pneumoniae isolate 347 (PBP alleles 1a 2b 2x: 0_0_3, serotype: 35F)	≤ 0.01	0.03
Streptococcus pneumoniae isolate 348 (PBP alleles 1a 2b 2x: 2_6_0, serotype: 11A)	≤ 0.01	0.03
Streptococcus pneumoniae isolate 349 (PBP alleles 1a 2b 2x: 0_0_0, serotype: 35B)	0.03	0.03
Streptococcus pneumoniae isolate 350 (PBP alleles 1a 2b 2x: 7_67_1, serotype: 23B1)	0.03	0.25
Streptococcus pneumoniae isolate 351 (PBP alleles 1a 2b 2x: 78_0_0, serotype: Serogroup 24)	≤ 0.01	≤ 0.01
Streptococcus pneumoniae isolate 352 (PBP alleles 1a 2b 2x: 2_0_2, serotype: 15B/C)	≤ 0.01	0.03
Streptococcus pneumoniae isolate 353 (PBP alleles 1a 2b 2x: 0_0_0, serotype: 15B/C)	0.03	0.03
Streptococcus pneumoniae isolate 354 (PBP alleles 1a 2b 2x: 7_1_171, serotype: 23B1)	0.125	0.25
Streptococcus pneumoniae isolate 355 (PBP alleles 1a 2b 2x: 2_0_2, serotype: 21)	≤ 0.01	0.03
Streptococcus pneumoniae isolate 356 (PBP alleles 1a 2b 2x: 7_1_New, serotype: 35B)	0.25	0.25
Streptococcus pneumoniae isolate 357 (PBP alleles 1a 2b 2x: 2_0_2, serotype: 3)	≤ 0.01	≤ 0.01
Streptococcus pneumoniae isolate 358 (PBP alleles 1a 2b 2x: 2_0_2, serotype: 15B/C)	≤ 0.01	≤ 0.01
Streptococcus pneumoniae isolate 359 (PBP alleles 1a 2b 2x: 2_6_0, serotype: 11A)	≤ 0.01	≤ 0.01
Streptococcus pneumoniae isolate 360 (PBP alleles 1a 2b 2x: 1_0_0, serotype: 15A)	≤ 0.01	0.03
Streptococcus pneumoniae isolate 361 (PBP alleles 1a 2b 2x: 2_0_2, serotype: 15B/C)	≤ 0.01	≤ 0.01
Streptococcus pneumoniae isolate 362 (PBP alleles 1a 2b 2x: 0_1_1, serotype: 23B1)	0.06	0.125
Streptococcus pneumoniae isolate 363 (PBP alleles 1a 2b 2x: 1_0_187, serotype: 19A)	≤ 0.01	≤ 0.01
Streptococcus pneumoniae isolate 364 (PBP alleles 1a 2b 2x: 0_0_2, serotype: 10A)	≤ 0.01	0.03
Streptococcus pneumoniae isolate 365 (PBP alleles 1a 2b 2x: 2_0_2, serotype: 15A)	0.03	0.03
Streptococcus pneumoniae isolate 366 (PBP alleles 1a 2b 2x: 1_0_0, serotype: 15A)	≤ 0.01	≤ 0.01
Streptococcus pneumoniae isolate 367 (PBP alleles 1a 2b 2x: 1_0_0, serotype: 15A)	≤ 0.01	0.03
Streptococcus pneumoniae isolate 368 (PBP alleles 1a 2b 2x: 2_0_2, serotype: 15B/C)	≤ 0.01	≤ 0.01
Streptococcus pneumoniae isolate 369 (PBP alleles 1a 2b 2x: 0_6_2, serotype: 16F)	0.03	0.03
Streptococcus pneumoniae isolate 370 (PBP alleles 1a 2b 2x: 4_12_7, serotype: 35B)	2	2
Streptococcus pneumoniae isolate 371 (PBP alleles 1a 2b 2x: 0_0_0, serotype: 34)	≤ 0.01	0.03
Streptococcus pneumoniae isolate 372 (PBP alleles 1a 2b 2x: 0_0_3, serotype: 35F)	≤ 0.01	0.03
Streptococcus pneumoniae isolate 373 (PBP alleles 1a 2b 2x: 2_3_2, serotype: 3)	≤ 0.01	≤ 0.01
Streptococcus pneumoniae isolate 374 (PBP alleles 1a 2b 2x: 0_0_0, serotype: 15B/C)	≤ 0.01	0.03

Reference: the supplement of paper PMC11055344
